The molecules below were run against PRMT5/MEP50 Complex (Homo sapiens (Human), UniProt O14744) (assay: PRMT5 inhibition based on TR-FRET assay). Conditions: 32 nM PRMT5:MEP50, 50 nM Histone-H4 peptide, 1 μM SAM.
Format: biochemical
Text: PRMT5 Inhibition Based on TR-FRET Assay:
Protein arginine methyltransferase 5 (PRMT5) is a type II arginine methyltransferase that catalyze mono- and symmetric demethylation on arginine residues of histone or non-histone proteins in presence of S-adenosylmethionine (AdoMet or SAM) a cofactor responsible for donating the methyl group. PRMT5 is reported to be overexpressed in several human cancers. To identify compounds that inhibit the PRMT5 and decrease its activity, a TR-FRET based assay has been established. Time-resolved fluorescence resonance energy transfer (TR-FRET) HTS assays are homogeneous proximity assays where the interaction of two dye-labeled binding partners is detected by the energy transfer between a donor and an acceptor dye and the subsequent light emission by the acceptor dye. PRMT5 catalyzes Histone H4 peptide which is biotin tagged to the Lysine amino acid at carboxyl end, in presence of S-adenosyl-1-methionine (SAM) to methylate the peptide. The antibody specific to mono methylated H4 peptide (H4R3) with Ig conjugate binds to the methylated peptide, indirectly binding to the Europium lanthanide. SureLight Allophycocyanin-Streptavidin binds to the biotin tag of the peptide, therefore accepting the energy transferred from the Europium lanthanide. This energy transfer between Europium to SureLight Allophycocyanin is a direct measure of the activity/inhibition of the PRMT5 enzyme.
Assay buffer: 20 mM BICINE (pH 7.6), 25 mM NaCl, 2 mM DTT, 0.01% Tween-20 and 0.01% BSA.
The compound dilutions were prepared as 7.5% DMSO stock solutions in assay buffer. To 2 μL (7.5×) of test compound, 5 μL of PRMT5 enzyme prepared in assay buffer (Final concentration of 32 nM in 15 μL reaction volume) was added and allowed for 30 minutes pre-incubation time in a white polystyrene 384-well plate at room temperature. […] The plates were then read on Victor-3 with Excitation at 340 nm and Emissions collected at 615 and 665 nm in TR-FRET protocol. […]

Chain of UniProt O14744 (O14744 whole entry): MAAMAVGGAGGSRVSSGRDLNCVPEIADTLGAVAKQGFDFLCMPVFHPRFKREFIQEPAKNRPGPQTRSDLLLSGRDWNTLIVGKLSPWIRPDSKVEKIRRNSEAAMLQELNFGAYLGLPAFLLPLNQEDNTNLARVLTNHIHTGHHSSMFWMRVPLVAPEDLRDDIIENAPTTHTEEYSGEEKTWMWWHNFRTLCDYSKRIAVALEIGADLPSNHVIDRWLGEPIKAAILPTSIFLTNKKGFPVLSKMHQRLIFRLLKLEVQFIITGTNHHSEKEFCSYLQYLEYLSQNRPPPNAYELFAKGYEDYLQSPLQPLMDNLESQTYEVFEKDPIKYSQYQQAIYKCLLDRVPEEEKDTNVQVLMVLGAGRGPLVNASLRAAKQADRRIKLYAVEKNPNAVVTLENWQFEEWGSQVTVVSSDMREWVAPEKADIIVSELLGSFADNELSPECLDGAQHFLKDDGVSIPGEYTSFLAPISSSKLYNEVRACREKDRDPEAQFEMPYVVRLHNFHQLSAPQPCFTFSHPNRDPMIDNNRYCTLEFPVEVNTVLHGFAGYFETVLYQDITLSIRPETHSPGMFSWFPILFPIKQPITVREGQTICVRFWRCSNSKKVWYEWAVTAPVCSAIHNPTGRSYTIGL
Chain of UniProt O14744 (Q9BQA1 whole entry partner): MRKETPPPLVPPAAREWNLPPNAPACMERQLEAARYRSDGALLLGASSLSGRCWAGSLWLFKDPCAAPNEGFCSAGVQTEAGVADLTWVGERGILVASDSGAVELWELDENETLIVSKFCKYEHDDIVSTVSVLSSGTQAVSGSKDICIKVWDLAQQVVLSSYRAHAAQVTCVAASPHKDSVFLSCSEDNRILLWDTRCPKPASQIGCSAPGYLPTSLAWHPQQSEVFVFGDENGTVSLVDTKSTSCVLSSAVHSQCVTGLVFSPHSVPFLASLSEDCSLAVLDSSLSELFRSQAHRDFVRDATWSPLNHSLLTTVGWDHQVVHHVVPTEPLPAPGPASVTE

| SMILES | IC50 |
| --- | --- |
| Cc1ccccc1Cn1c(=O)n(CC(O)CN2CCc3ccccc3C2)c2ccccc21 (stereo not drawn) [Example 87, 1-(3-(3,4-Dihydroisoquinolin-2(1H)-yl)-2-hydroxypropyl)-3-(2-methylbenzyl)-1,3-dihydro-2H-benzo[d]imidazol-2-one] | 0.04 µM |
| Cc1ccc(Cn2ccn(CC(O)CN3CCc4ccccc4C3)c2=O)cc1 (stereo not drawn) [Example 83, 1-(3-(3,4-dihydroisoquinolin-2(1H)-yl)-2-hydroxypropyl)-3-(4-methylbenzyl)-1,3-dihydro-2H-imidazol-2-one] | 0.5 µM |
| Cc1ccc(Cn2c(=O)n(CC(O)CN3CCc4ccccc4C3)c3ccccc32)cc1 (stereo not drawn) [Example 85, 1-(3-(3,4-Dihydroisoquinolin-2(1H)-yl)-2-hydroxypropyl)-3-(4-methylbenzyl)-1,3-dihydro-2H-benzo[d]imidazol-2-one] | 0.08 µM |

From patent US11365205B2 (Aurigene Discovery Technologies Limited, priority 2018, dated 2022)
